The text below walks through data of paper PMC4336329 (PLoS ONE, 2015).

Each structure is given as a SMILES string. The whole screen tested about 310,000 compounds, of which about 14,000 (4.5%) showed an effect of 50% or more. The effect is printed as a negative number. The list shows a part of the results.
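Further: peak tail current of the secondary pulse compared with the same well before compound.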

This assay deals with human ether-à-go-go-related gene (hERG) potassium channel (human, UniProt Q12809). The assay can be described thus: primary screen, population patch clamp on CHO cells stably expressing hERG.
human ether-à-go-go-related gene (hERG) potassium channel, sequence (Q12809 whole entry, looked up): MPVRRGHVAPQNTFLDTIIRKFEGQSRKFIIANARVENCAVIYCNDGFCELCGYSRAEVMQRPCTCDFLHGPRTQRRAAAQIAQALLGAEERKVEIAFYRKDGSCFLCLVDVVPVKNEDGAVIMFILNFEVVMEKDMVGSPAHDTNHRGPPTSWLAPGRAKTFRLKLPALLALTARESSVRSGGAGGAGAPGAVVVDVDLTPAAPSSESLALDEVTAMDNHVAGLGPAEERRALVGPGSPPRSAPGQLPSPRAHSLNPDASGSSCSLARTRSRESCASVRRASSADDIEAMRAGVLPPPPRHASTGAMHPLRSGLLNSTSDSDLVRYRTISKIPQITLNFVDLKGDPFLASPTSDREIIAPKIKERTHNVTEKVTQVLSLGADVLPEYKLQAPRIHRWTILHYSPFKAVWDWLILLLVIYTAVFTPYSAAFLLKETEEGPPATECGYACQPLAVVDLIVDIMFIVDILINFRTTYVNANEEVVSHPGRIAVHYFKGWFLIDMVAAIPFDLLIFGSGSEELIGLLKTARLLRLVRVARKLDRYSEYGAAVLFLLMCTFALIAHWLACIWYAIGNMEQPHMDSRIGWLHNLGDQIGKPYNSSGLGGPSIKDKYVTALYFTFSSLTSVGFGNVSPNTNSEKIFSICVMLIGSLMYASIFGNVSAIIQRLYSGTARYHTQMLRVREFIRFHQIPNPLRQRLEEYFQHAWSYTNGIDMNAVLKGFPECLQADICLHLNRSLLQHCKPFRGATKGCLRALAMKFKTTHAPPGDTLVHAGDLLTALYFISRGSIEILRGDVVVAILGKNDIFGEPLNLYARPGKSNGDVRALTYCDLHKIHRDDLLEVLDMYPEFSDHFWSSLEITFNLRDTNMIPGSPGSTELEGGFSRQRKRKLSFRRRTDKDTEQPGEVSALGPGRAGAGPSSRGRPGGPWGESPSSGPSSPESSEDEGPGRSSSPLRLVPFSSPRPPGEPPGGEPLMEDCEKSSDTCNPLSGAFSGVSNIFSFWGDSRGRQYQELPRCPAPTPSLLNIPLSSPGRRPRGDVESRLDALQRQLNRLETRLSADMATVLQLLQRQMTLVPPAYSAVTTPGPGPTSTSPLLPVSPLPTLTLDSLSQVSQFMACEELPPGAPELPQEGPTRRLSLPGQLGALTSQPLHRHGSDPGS
Take `COc1ccc(NC(=O)c2ccco2)c(OC)c1`: the “hERG current change (%, negative = inhibition) at 10uM” value stood at 16.9%.
In the case of `O=C(Nc1ccc(Cl)cn1)c1cccc(S(=O)(=O)N2CCOCC2)c1` it was -65.4%.
In the case of `COc1ccc(-c2cc(C(=O)NCC3CCCO3)c3ccccc3n2)cc1` (centres unmarked), the “hERG current change (%, negative = inhibition) at 10uM” value is given as -10.7%.
With `CCOC(=O)C1CCN(C(=O)c2c(-c3ccccc3)noc2C)CC1` the figure was 22.2%.
In the case of `O=C(CNC(=O)c1ccco1)NCC(=O)OCc1ccccc1Br` it was -0.53%; in that of `C/C(=N\NC(=O)c1ccccc1F)c1ccccn1`, -12.1%; in that of `CCN(C(=O)CSc1nc(-c2ccccc2)c(-c2ccccc2)[nH]1)C1CCS(=O)(=O)C1` (centres unmarked), -21.7%.
In the case of `Cc1cc(C)c(O)c(-c2cc(C(=O)NCc3ccccc3)[nH]n2)c1` it was 9.04%; in that of `CC(OC(=O)Cn1[nH]c(=O)c2ccccc2c1=O)C(=O)Nc1ccc(F)cc1` (centres unmarked), -6.34%.
On to `O=C(CSCc1ccc(F)cc1)Nc1ccc(F)cc1`, for which the “hERG current change (%, negative = inhibition) at 10uM” value was -18.3%.
With `CCCCn1nc(C(=O)Nc2cc(S(=O)(=O)N(C)C)ccc2C)c2ccccc2c1=O` the figure was -2.39%.
With `O=[N+]([O-])c1ccc(S(=O)(=O)Nc2nc3ccccc3nc2Nc2ccccc2)cc1`, the “hERG current change (%, negative = inhibition) at 10uM” value was found to be 2.57%.
`CC(=O)Nc1ccc(OCC(O)Cn2c(C(C)C)nc3ccccc32)cc1` (centres unmarked): the “hERG current change (%, negative = inhibition) at 10uM” value stood at 37.5%.
In the case of `Cc1nc(N2CCCCC2C)c2c(C)c(C(=O)Nc3cccc(C(F)(F)F)c3)sc2n1` (centres unmarked) it was 12.5%.
With `COc1ccc(/C=N/Nc2cc(C)nc(N3CCOCC3)n2)cc1` the figure was 4.93%.
Consider `CC(C)CC(=O)Nc1ccc(C(=O)Nc2cccc(O)c2)cc1`, for which the “hERG current change (%, negative = inhibition) at 10uM” value is reported as 27.3%.
With `O=[N+]([O-])c1cccnc1Oc1ccccc1F` the figure was 5.89%; with `CCC1CCCCN1S(=O)(=O)c1ccc(C(=O)Nc2nnc(C3=COCCO3)o2)cc1` (centres unmarked), 2.66%; with `CCOC(=O)CC1CCCCN1Cc1cn[nH]c1-c1ccc(F)cc1F` (centres unmarked), -64.8%.
In the case of `COC(=O)C1CC(O)CN1S(=O)(=O)c1ccc2ccccc2c1` (centres unmarked) it was -3.41%; in that of `CN(C(=O)COC(=O)C1CCN(S(=O)(=O)c2ccc3c(c2)OCCO3)CC1)C1CCCCC1`, -17.5%.
In the case of `Brc1ccc(CSc2ncnc3nc[nH]c23)cc1` it was -10.3%.
For `Cc1ccc(NC(=O)NC(=O)N(C2CCCCC2)S(=O)(=O)c2ccccc2)cc1`, the “hERG current change (%, negative = inhibition) at 10uM” value is reported as -1.76%.
In the case of `CCc1nc2ccccc2n1Cc1ccccc1OC` it was -10.1%.
On to `CN(C)c1ccc(NC(=O)COC(=O)c2cc(=O)c3ccccc3o2)cc1`, for which the “hERG current change (%, negative = inhibition) at 10uM” value is given as 12%.
In the case of `O=C(COC(=O)c1n[nH]c2ccccc12)NC(=O)NCc1ccco1` it was -7.44%; in that of `CC(=O)c1cc(C)ccc1OC(=O)c1ccco1`, -2.77%.
Take `Cc1ccccc1-n1c(=O)n(Cc2ccc(C(=O)O)cc2)c(=O)c2[nH]cnc21`: the “hERG current change (%, negative = inhibition) at 10uM” value was determined as 33.6%.
As for `O=c1c2ccccc2[nH]c(=S)n1CCC1=CCCCC1`, the “hERG current change (%, negative = inhibition) at 10uM” value is 17%.
With `Cc1ccc(C2=NN(C(=O)CN3C(=O)c4ccccc4S3(=O)=O)C(c3ccco3)C2)cc1` (centres unmarked) the figure was 14.1%.
With `CCOC(=O)N1CCC(NC(=O)c2ccc3c(c2)ncn3C2CCCC2)CC1` the figure was -1.01%; with `CC(C)CNC(=S)NNC(=O)c1ccco1`, -18.1%; with `CC1CCN(c2ccc([N+](=O)[O-])cc2C(=O)N2CCOCC2)CC1`, 3.86%.
With `CC[C@@]1(c2ccccc2)C(=O)N(C(=O)OC)N1C(=O)OC` the figure was 33.5%.
For the molecule `COc1ccc(N2C(=O)NC(=O)/C(=C/c3cccc(OC(=O)c4cccs4)c3)C2=O)cc1Cl`, the “hERG current change (%, negative = inhibition) at 10uM” value is -2.57%.
In the case of `Cn1c(N)c(C(=O)COC(=O)CCCN2C(=O)c3ccccc3C2=O)c(=O)n(C)c1=O` it was -12.3%.
On to `COC(=O)c1cc(NC(=O)c2ccc(OC)cc2)c(=O)oc1C`, for which the “hERG current change (%, negative = inhibition) at 10uM” value turned out to be 16.1%.
In the case of `O=C(NCCc1ccc(Cl)cc1)c1ccc2nc(N3CCOCC3)sc2c1` it was 12.4%.
With `CC(=O)c1cccn1S(=O)(=O)c1ccccc1` the figure was 18.1%; with `Cc1c(C(=O)NCCCN2CCCC2=O)oc2ccccc12`, 7.96%; with `Cn1cc(CN2CCC(CO)(CCCc3ccccc3)CC2)c(-c2ccccc2)n1`, -66.3%.
In the case of `CCC(C)(C)NC(=O)CN(C(=O)c1snc(C(N)=O)c1N)c1ccc2c(c1)OCCO2` it was 11.6%; in that of `NS(=O)(=O)c1ccc(NC(=O)COC(=O)C23CC4CC(CC(C4)C2)C3)cc1`, 12.5%; in that of `COc1cccc(C(=O)Oc2cc(N)n(S(=O)(=O)c3ccc(C)cc3)n2)c1OC`, 0.237%.
With `O=C(Nc1ccc(O)cc1)c1cccc(Oc2ccc([N+](=O)[O-])cc2)c1`, the “hERG current change (%, negative = inhibition) at 10uM” value was -37%.
As to `COc1ccccc1C(=O)OCC(=O)N1CCC(Cc2ccccc2)CC1`, the “hERG current change (%, negative = inhibition) at 10uM” value is -10.3%.
In the case of `NC(=O)c1ccc(NC(=O)COc2cccc3ccccc23)cc1` it was 17.9%; in that of `Cn1cc(-c2cccc(Cl)c2)cc(C#N)c1=O`, -17.5%; in that of `Cc1cc(-c2nnc3n2N=C(c2ccc(F)cc2)CS3)n[nH]1`, -60.3%.
In the case of `CCn1c(CNC(=O)COc2ccc(C(C)C)cc2)nnc1SCC(=O)Nc1ccccc1` it was -54.2%; in that of `N/C(=N\OC(=O)c1cc(Cl)ccc1Cl)c1ccncc1`, -6.36%.
With `COc1nc(C)ccc1-c1noc(-c2ccco2)n1`, the “hERG current change (%, negative = inhibition) at 10uM” value was determined as 10%.
With `O=C(CCc1ccccc1Cl)Nc1ccc(S(=O)(=O)N2CCOCC2)cc1` the figure was -4.49%.
As to `Cc1ccc(C2(C)NC(=O)N(CC(=O)N3CCN(S(=O)(=O)c4cccc(F)c4)CC3)C2=O)cc1` (centres unmarked), the “hERG current change (%, negative = inhibition) at 10uM” value is on record as -65.7%.
Regarding `CC1CC(C)CN(S(=O)(=O)c2cccc(C(=O)OCCN3CCCC3=O)c2)C1` (centres unmarked), the “hERG current change (%, negative = inhibition) at 10uM” value is on record as -17.6%.
In the case of `COc1ccc(-n2c(C)c3c(OC)cccc(=O)c3c2C)cc1` it was -60.2%.
